In the RNAGym collection of RNA variant scans (doi:10.1093/nar/gkz1192) one finds self-cleavage data, which are given here for 84 variants.

Sequences and labels used below:
B1: CPEB3 Ribozyme (parent)
chain: UAACAGGGGGCCACAGCAGAAGCGUUCACGUCGCAGCCCCUGUCAGAUUCUGGUGAAUCUGCGAAUUCUGCUGUAUAUCUC

The source gives no read counts; variants with many changes may rest on few reads.

In this data set the parent is B1. The experiment in a line: self-cleavage, relative activity (ratio to wild type); higher = more cleavage; in vitro, sequencing. In a few lines:
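Libraries of CPEB3 self-cleaving ribozyme mutants came from rounds of error-prone PCR and carried barcodes, which DNA sequencing matched to variants. In vitro transcription used T7 RNA polymerase at 37°C for 5 hours, with a further 15 min in DNase I before EDTA stopped the reaction; the ribozymes cleaved during both steps. The RNA was reverse transcribed with template switching and sequenced on Illumina. Relative activity is the cleaved/total read fraction of a variant divided by that of the unmutated ribozyme, averaged over three batches with at least 5 reads.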
Turning to G9U A15G A28U, the self-cleavage was found to be 0.09. Under G9U C12U U67C stands 0.05. The same measure for G9U A18G U25C U48C: 0.25; for G9U A28G C71A U72A: 0.05; for G9U C38A U54A U58C U60C: 0.12. Under G9U G33A U48C A56G U60A stands 0.04; under G9C U43A A45G, 0.08. G9U G24A U43C: the self-cleavage was determined as 0.08. Under G9U A15G U41C A56C U72C A77G stands 0.19. The same measure for G9U C14U A35G C40A A57G U74G: 0.07; for G9U A18G A56U U74C: 0.17; for G9U A13U G30C U69C U80A: 0.19.

G9U G19A U49C A56G U69C A75G U78A: the self-cleavage worked out at 0.03.

For G9U U25A A28G U51C, the self-cleavage was 0.07.

For the variant G9U A15G C29U A35U A57U U80A, the self-cleavage was 0.12. The same measure for G9U A28U U78C: 0.17.

Regarding G9U A13U A21U, the self-cleavage was 0.1. Consider G9U C29G U41C U48C U69C U72C, for which the self-cleavage stood at 0.04.

In the case of G9U A28U C32G U66A, the self-cleavage turned out to be 0.04. Under G9U A18U U25C A75U U80C stands 0.23; under G9U A56G U80C, 0.14; under G9U A56G U69C, 0.06. The same measure for G9C U54A A64G A65C: 0.16.

In the case of G9U C32U C37G U51C G52U C62G, the self-cleavage came to 0.06. Regarding G9U A18U A28G C39U A47G U80C, the self-cleavage was 0.04. With G9U G24A C62U U72C U78A, the self-cleavage was 0.04. G9C U26G U31C A35U: the self-cleavage was determined as 0.22. The same measure for G9U A15G A20G A35U: 0.19; for G9C U60C U66C U67G: 0.19.

Turning to G9U A21G C38U U54G, the self-cleavage came to 0.06. The same measure for G9U C27U U60A: 0.05; for G9U G30C U69C: 0.08. For the variant G9U G30A U41A U76C, the self-cleavage stood at 0.05. For G9U A35U U41A U80C, the self-cleavage was determined as 0.35. The same measure for G9C U43C U48C U80A: 0.05. For G9U A21G A28G U67G U76G, the self-cleavage was 0.05. Under G9U A20G C44U U76A A77U stands 0.03. Consider G9U A20G U25C U26C C68U, for which the self-cleavage came to 0.33. Take G9U A28G A57G: the self-cleavage turned out to be 0.06. In the case of G9U C50U A64U, the self-cleavage was determined as 0.06. As for G9U A18U U25C A28U, the self-cleavage stood at 0.04. With G9U A15U U78A, the self-cleavage stood at 0.15.

G9U A15U A20G A75G A77G: the self-cleavage was found to be 0.04. Regarding G9U A35U U60A A77G U78A, the self-cleavage stood at 0.04. The same measure for G9U G19U A64U: 0.11; for G9U G30U U54A U58C: 0.06.

For the variant G9U A18U A47G U48C U66C A75U C81U, the self-cleavage was determined as 0.04.

For the variant G9U A35G U43C U80C, the self-cleavage stood at 0.53. The same measure for G9C U54A A75G U80G: 0.18. Under G9U A15U U26G U69A stands 0.13; under G9U G33U A45G C50G G61A, 0.09. Under G9U A20U C27U C62U stands 0.04; under G9U A13G A28U U78C, 0.22. Consider G9U A15U A35C, for which the self-cleavage is 0.13.

On to G9U A18G G36A U43A, for which the self-cleavage turned out to be 0.18. The same measure for G9C U67C A75G: 0.05.

For the variant G9U A18G U51C A57U U80A, the self-cleavage came to 0.17.

As to G9U A13G U26C A64U, the self-cleavage was 0.16. Take G9U A13U A28U A57G: the self-cleavage came to 0.19. Under G9U C50U A56G stands 0.13. As for G9U A18U U25C U41G U66A U72A U78C, the self-cleavage is 0.09. Under G9C U26A C27U U54C A65U stands 0.04; under G9U A18G A57G A65G U76C U80C, 0.04; under G9U C11U A20G U51A A64G U69C, 0.13. Under G9U A15U C29U U54A A56G A57U stands 0.04. The same measure for G9U A20U C50U U80A: 0.13; for G9U A18G U25C U31C U51A C68G: 0.12; for G9U C29U A56U A57G: 0.1. Take G9C U58C U74C: the self-cleavage amounted to 0.23. Turning to G9U A35U U54C, the self-cleavage turned out to be 0.16. With G9C G10C A28U U31C U54A, the self-cleavage was determined as 0.15. For the variant G9U A21U G24A U43C U74G U80C, the self-cleavage was 0.03. On to G9U C40U U43A U49C, for which the self-cleavage worked out at 0.05. Under G9U C38A A47U A56C stands 0.06; under G9U A28G U49C, 0.15; under G9U A15G U60C U67C U72C U78C, 0.06. Under G9U A13U A15U A28G U66C U69A stands 0.11; under G9U A20G A28G, 0.04. Regarding G9U A15U U54C, the self-cleavage worked out at 0.16.

For the variant G9U A35U A56G A75U U80C, the self-cleavage was 0.1. Under G9U A18G A65G U66A G73A stands 0.03. Under G9C G30C G55U A57G A75G U78C stands 0.04. The same measure for G9U A18U A35U G63U U76C: 0.04. Regarding G9U A18U A20G A35U G53A U60C, the self-cleavage was determined as 0.05.
